Data published in publication PMC3538594 (PLoS ONE, 2013).

Tests used:
[1] = target: recombinant complex II (Thermus thermophilus, UniProt Q5SIC0); test: EPR signal of the [2Fe-2S] cluster (axial/rhombic transition); set-up: species or system T. thermophilus; conditions: in words
Protocol: EPR spectra were recorded on a Bruker ElexSys X-band spectrometer fitted with an Oxford Instrument He-cryostat and temperature control system. Buffers used were either 50 mM MOPS at pH 7 or a mixture of 100 mM MOPS and 100 mM piperazine for the pH experiments. […] Additions of reducing agents were performed at room temperature followed by vortexing and freezing of the sample in liquid nitrogen within 5 min after addition.
Figure 5 Influence of redox mediators, buffer and inhibitors on EPR spectra of the recombinant complex II. […] The spectrum labeled ‘asc’ was obtained on a sample reduced by 5 mM ascorbate, ‘malate’ by addition of 20 mM malate, ‘dith’ by addition of 1 mM dithionite. Vertical lines indicate the position of the gx-signal. Spectra were recorded at a temperature of 50 K, microwave power of 64 mW and a modulation amplitude of 1 mT.
Protein concentration was 10 µM. Spectra were recorded at a temperature of 50 K, microwave power of 64 mW and a modulation amplitude of 1 mT.

[2] = target: T. thermophilus complex II (Thermus thermophilus, UniProt Q5SIB8+Q5SIB9+Q5SIC0+Q5SIC1); test: DCPIP/1,4-NQ activity assay, statements across enzyme forms; format: biochemical
Description: Kinetic experiments with NQNO support this interpretation.

Structure (SMILES) | influence on the rhombicity of the [2Fe-2S] EPR signal [1] | inhibition at 50 µM ([2]; 0.05 mM NQNO, 30°C, read-out: DCPIP/1,4-NQ activity inhibited to) | Ki ([2]; […], read-out: Ki, non-competitive mode)
O=C(O)CC[N+](=O)[O-] [3-NP, 3-Nitropropionic acid] | prevented the transition to the rhombic signal when succinate was added |  | 
CCCCCCCCCc1cc(O)c2ccccc2[n+]1[O-] [NQNO] |  | 40% | 70 to 88 µM
